About 2,200 (0.71%) of roughly 310,000 compounds showed an effect of 50% or more. The effect is printed as a negative number. This is one part of the list.
What follows are molecules tested against human ether-à-go-go-related gene (hERG) potassium channel (human, UniProt Q12809) (assay: primary screen, population patch clamp on CHO cells stably expressing hERG).
Chain of human ether-à-go-go-related gene (hERG) potassium channel (Q12809 whole entry, looked up): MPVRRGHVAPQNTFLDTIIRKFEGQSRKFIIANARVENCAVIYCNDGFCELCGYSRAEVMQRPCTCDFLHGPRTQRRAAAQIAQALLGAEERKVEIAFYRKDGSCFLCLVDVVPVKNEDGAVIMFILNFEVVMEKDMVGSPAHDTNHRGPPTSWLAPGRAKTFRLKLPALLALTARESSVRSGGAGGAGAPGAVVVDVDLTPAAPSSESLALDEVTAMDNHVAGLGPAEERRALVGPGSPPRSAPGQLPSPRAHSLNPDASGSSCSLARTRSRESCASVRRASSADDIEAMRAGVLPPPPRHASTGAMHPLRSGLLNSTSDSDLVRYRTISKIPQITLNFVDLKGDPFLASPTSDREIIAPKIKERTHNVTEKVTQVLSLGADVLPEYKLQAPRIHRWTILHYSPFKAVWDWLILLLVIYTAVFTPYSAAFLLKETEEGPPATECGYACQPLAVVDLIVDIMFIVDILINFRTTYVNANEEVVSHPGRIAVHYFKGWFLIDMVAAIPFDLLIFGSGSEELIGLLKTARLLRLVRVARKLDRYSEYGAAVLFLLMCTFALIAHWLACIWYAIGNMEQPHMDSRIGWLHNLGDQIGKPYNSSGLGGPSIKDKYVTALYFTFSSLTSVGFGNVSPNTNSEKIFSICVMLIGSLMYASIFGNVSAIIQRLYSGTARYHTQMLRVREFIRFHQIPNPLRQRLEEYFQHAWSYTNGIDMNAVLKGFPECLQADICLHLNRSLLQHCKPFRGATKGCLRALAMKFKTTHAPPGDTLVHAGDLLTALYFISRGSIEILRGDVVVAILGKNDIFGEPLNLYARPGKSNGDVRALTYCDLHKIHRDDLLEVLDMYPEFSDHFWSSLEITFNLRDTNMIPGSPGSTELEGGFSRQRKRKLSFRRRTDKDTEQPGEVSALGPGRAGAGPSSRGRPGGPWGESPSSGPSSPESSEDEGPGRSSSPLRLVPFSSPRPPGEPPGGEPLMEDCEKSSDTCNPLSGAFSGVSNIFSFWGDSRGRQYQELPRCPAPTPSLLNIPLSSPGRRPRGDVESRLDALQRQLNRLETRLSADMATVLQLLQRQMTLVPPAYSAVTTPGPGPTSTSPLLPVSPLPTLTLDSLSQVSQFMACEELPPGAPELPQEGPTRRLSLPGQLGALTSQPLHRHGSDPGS

Going from `CCCC(=O)NC(=S)Nc1ccc(N2CCN(C(=O)c3cccs3)CC2)cc1` to `COc1ccc(N2CCN(C(CNC(=O)C(=O)NCc3ccc4c(c3)OCO4)c3ccco3)CC2)cc1` (centres unmarked), the “hERG current change (%, negative = inhibition) at 1uM” value falls from 14% to 4.42%.

First: CN(C)N1C(N)=C(C#N)C(c2ccsc2)C2=C1CC(C)(C)CC2=O (centres unmarked)
Second: CCOCCCNC(=O)c1oc2ccc3c(c2c1C)C(O)CC(C)(C)O3 (centres unmarked)
The “hERG current change (%, negative = inhibition) at 1uM” value of the first is lower: 7.75% for the first, 14.4% for the second.

Going from `CCC(C)c1ccccc1NC(=O)c1cccnc1` (centres unmarked) to `CCN(C(=S)Nc1cccnc1)c1ccccc1`, the “hERG current change (%, negative = inhibition) at 1uM” value falls from 12.6% to 5.82%.

Going from `O=C(/C=C/c1ccc(OC(F)F)cc1)OCC(=O)N1CCC(c2ccccc2)=N1` to `Cc1ccc(-c2nc(SCC(=O)Nc3ccccc3OC(F)F)c3c(C)c(C(=O)O)sc3n2)cc1`, the “hERG current change (%, negative = inhibition) at 1uM” value rises from 1.59% to 7.59%.

Going from `CCn1c(C)[n+](CC(O)COCC2CC=CCC2)c2ccccc21.[I-]` (centres unmarked) to `CC(C)NC(=O)Cn1c(=O)cnc2ccccc21`, the “hERG current change (%, negative = inhibition) at 1uM” value falls from 13.4% to 3.1%.

Going from `NC(=O)c1cccc(NC(=O)Nc2ccc(Cl)cc2)c1` to `O=C(Nc1ccc(Cl)cc1)c1ccsn1`, the “hERG current change (%, negative = inhibition) at 1uM” value falls from 20.2% to 13.8%.

Compared with `CC/C(=N\NC(=S)Nc1cc(C)ccc1C)c1ccc(OC(F)F)cc1`, `COc1ccc(C[C@H]2CN3C(=NC[C@@H]3C(C)C)N2C[C@H](C)NC(=O)c2ccc(C)c(Br)c2)cc1` is lower in “hERG current change (%, negative = inhibition) at 1uM” value: 2.88% for the first, -41.9% for the second.

First: COC(=O)Nc1nn(Cc2ccccc2F)cc1Br
Second: CCOC(=O)CN1C(=O)C(=O)N(Cc2ccccc2F)C1=O
The “hERG current change (%, negative = inhibition) at 1uM” value of the first is higher: 26.5% for the first, 12.2% for the second.

First: CCc1ccc(CN(C)C(=O)c2cc(COc3ccc(-n4cncn4)cc3)on2)cc1
Second: Cc1ccc(-n2cc(CNCCCn3cccn3)c(-c3cccc(C)c3)n2)cc1
The “hERG current change (%, negative = inhibition) at 1uM” value of the first is higher: -9.83% for the first, -27.1% for the second.

First: O=C(N/N=C/c1ccc([N+](=O)[O-])cc1)c1[nH]ncc1Br
Second: CCN(CC)S(=O)(=O)c1cccc(C(=O)N/N=C/c2ccc([N+](=O)[O-])o2)c1
The “hERG current change (%, negative = inhibition) at 1uM” value of the first is higher: 9.98% for the first, 4.1% for the second.

Compared with `Cc1cc(OCC(=O)Nc2ccccc2F)nc(C(C)C)n1`, `Cc1cc(=O)n2c(-c3ccccc3C)n[nH]c2n1` is lower in “hERG current change (%, negative = inhibition) at 1uM” value: 2.94% for the first, -3.44% for the second.

First: Cc1oc(-c2ccc(Cl)cc2)nc1CS(=O)CC(=O)NCCN1CCCC1 (centres unmarked)
Second: CCN(CC)CCCNC(=O)CN1N=C(c2ccc(OC)cc2)CCC1=O
The “hERG current change (%, negative = inhibition) at 1uM” value of the first is lower: 7.33% for the first, 12.5% for the second.

Going from `CCN(CCCNC(=O)Cn1cc2c(n1)CCCC2)c1cccc(C)c1` to `CCOC(=O)C1(Cc2cccc(F)c2)CCN(Cc2cn(CC)nc2C)CC1`, the “hERG current change (%, negative = inhibition) at 1uM” value falls from 7.33% to -6.14%.

Going from `Cc1ccc(NC(=O)C2=C(C(=O)O)CCCC2)cc1Br` to `O=C(O)C1=C(C(=O)Nc2cc(C(F)(F)F)ccc2Cl)CCCC1`, the “hERG current change (%, negative = inhibition) at 1uM” value rises from 15.6% to 15.7%.

Going from `COc1cccc2cc(-c3nnc(SCC(=O)Nc4nc(C)cs4)n3C)oc12` to `CC(=O)c1c(C)[nH]c(C(=O)Nc2nc(C)cs2)c1C`, the “hERG current change (%, negative = inhibition) at 1uM” value falls from 9.62% to 4.36%.

First: O=C(c1ccccc1)N1CCCC(C(=O)N2CCCCC2)C1 (centres unmarked)
Second: O=C1CCCCN1CCC(=O)N1CCCC(N2CCN(c3ccccc3)CC2)C1 (centres unmarked)
The “hERG current change (%, negative = inhibition) at 1uM” value of the first is higher: 13.7% for the first, -3.37% for the second.

Going from `Cc1cccc(NC(=O)c2cc[n+]([O-])cc2)c1C` to `Cc1cc(C)[n+](Cc2ccccc2)cc1C(N)=O.[Cl-]`, the “hERG current change (%, negative = inhibition) at 1uM” value rises from 9.08% to 15.1%.

Compared with `Oc1cccc(-c2nc3c4c(ncn3n2)-c2ccccc2CC42CCCC2)c1`, `Cc1nc2ccccc2c(=O)n1-c1ccc(-c2ccccc2)cc1` is higher in “hERG current change (%, negative = inhibition) at 1uM” value: -12.1% for the first, 9.59% for the second.

Compared with `CCOc1cc2[nH]c(=O)n(CCCC(=O)N(C)Cc3ccccc3)c(=O)c2cc1OCC`, `CCOC(=O)C1=C(C)N=C2SC(C)C(=O)N2C1c1ccc(OCC)c(OCC)c1` (centres unmarked) is higher in “hERG current change (%, negative = inhibition) at 1uM” value: 1.42% for the first, 15.8% for the second.

Compared with `CCC1(c2ccc(-c3ccccc3)cc2)C(=O)NC(=O)NC1=O`, `Cn1cc(S(=O)(=O)Nc2cccc3ccccc23)c(=O)n(C)c1=O` is lower in “hERG current change (%, negative = inhibition) at 1uM” value: 11.9% for the first, -13.9% for the second.

Going from `O=C(N=C1SCC(=O)N1c1ccccc1)c1ccco1` to `Cl.NC(=O)C1CCN(C(c2ccccc2F)c2nnnn2Cc2ccco2)CC1` (centres unmarked), the “hERG current change (%, negative = inhibition) at 1uM” value rises from -1.23% to 11.9%.

First: COc1ccccc1/C=C(/C(=O)OCC(=O)Nc1ccccc1C)c1ccccc1
Second: COc1ccccc1CCC(=O)OCC(=O)Nc1ccc(S(N)(=O)=O)cc1
The “hERG current change (%, negative = inhibition) at 1uM” value of the first is lower: 7.02% for the first, 8.23% for the second.

Compared with `O=C(CSc1ccccn1)Nc1ccc2c(c1)OCO2`, `COc1ccc(C(=O)NCc2ccccn2)cc1[N+](=O)[O-]` is lower in “hERG current change (%, negative = inhibition) at 1uM” value: 12.3% for the first, 5.37% for the second.

First: CCC1CCCCN1C(=O)c1ccc(OC2CCN(Cc3ccccn3)CC2)cc1 (centres unmarked)
Second: Cc1ccc(NC(=O)CN2CCC(NC(=O)C3CCCCC3)CC2)c(Br)c1
The “hERG current change (%, negative = inhibition) at 1uM” value of the first is lower: 14.3% for the first, 16.1% for the second.

First: NC(=O)C1CCN(C(=O)CN2CCCc3ccccc32)CC1
Second: O=C(Cn1nnc2ccccc21)N1CCCCC1
The “hERG current change (%, negative = inhibition) at 1uM” value of the first is higher: 18.6% for the first, 2.74% for the second.

First: O=C(NCCCO)NC12CC3CC(CC(C3)C1)C2
Second: O=C(NCCc1ccccc1)NC1CCCCC1
The “hERG current change (%, negative = inhibition) at 1uM” value of the first is lower: 0.0711% for the first, 19.2% for the second.

Going from `CCN1C(=S)N[C@@H](CCc2ccccc2)[C@H](C(=O)OC)[C@H]1C` to `CCN(CC(=O)NCCc1ccccc1)S(=O)(=O)c1ccccc1`, the “hERG current change (%, negative = inhibition) at 1uM” value falls from 11.6% to 7.82%.

Compared with `Cc1n[nH]c(=S)n(NC(=O)CC(=O)Nn2c(=S)[nH]nc(C)c2=O)c1=O`, `COC(=O)c1ccc(C)c(NS(=O)(=O)c2cn(C)nc2C)c1` is lower in “hERG current change (%, negative = inhibition) at 1uM” value: 28.9% for the first, 9.83% for the second.

Going from `CCCNC(=O)NC(=O)c1cnccc1C(F)(F)F` to `O=C(NCc1ncc(C(F)(F)F)cc1Cl)Nc1ccccc1`, the “hERG current change (%, negative = inhibition) at 1uM” value falls from 16.9% to 14.6%.

First: CCN(CC)S(=O)(=O)c1cccc(C(=O)OCC(=O)c2ccc3c(c2)NC(=O)CO3)c1
Second: O=C(CNC(=O)c1ccc(N2C(=O)c3ccccc3C2=O)cc1)OCC(=O)c1ccccc1
The “hERG current change (%, negative = inhibition) at 1uM” value of the first is lower: 5.12% for the first, 11% for the second.

Compared with `CSc1sc(C(=O)Nc2ccc(F)cc2F)c2c1C=CCC2`, `CCOC(=O)/C=C1\SCC(=O)N1CC(=O)Nc1cccc(F)c1` is lower in “hERG current change (%, negative = inhibition) at 1uM” value: 11.8% for the first, 10.8% for the second.

First: Cc1ccc(C)c(N2CCN(C(=O)CCNS(=O)(=O)c3ccc4c(c3)oc(=O)n4C)CC2)c1
Second: Cc1ccc(S(=O)(=O)NCC(=O)N2CCCCC2)cc1
The “hERG current change (%, negative = inhibition) at 1uM” value of the first is lower: 6.2% for the first, 8.11% for the second.

First: CCNC(=S)NNC(=O)c1csc(CC)c1
Second: COc1ccc(C(=O)NC(=S)NCCO)cc1Br
The “hERG current change (%, negative = inhibition) at 1uM” value of the first is higher: 5.75% for the first, -0.56% for the second.

Compared with `CNCCc1ccc(OC)c(OC)c1`, `COc1ccc2c(c1OC)CCC2=O` is lower in “hERG current change (%, negative = inhibition) at 1uM” value: 16.3% for the first, -12.1% for the second.

Compared with `O=C(N/N=C/c1cc([N+](=O)[O-])ccc1O)/C(=C\c1cccs1)NC(=O)c1ccccc1`, `NC(=O)c1ccc(Nc2ccc([N+](=O)[O-])cc2[N+](=O)[O-])cc1` is higher in “hERG current change (%, negative = inhibition) at 1uM” value: -11.6% for the first, -0.833% for the second.

First: C=Cn1cc[n+](CC(=O)c2ccc(Br)s2)c1.[Br-]
Second: CC(=O)Nc1ccc(NC(=O)COC(=O)c2ccc(C)s2)cc1
The “hERG current change (%, negative = inhibition) at 1uM” value of the first is higher: 15.3% for the first, 13.9% for the second.

Compared with `Cc1ccc(Cl)cc1NS(=O)(=O)c1cn(C)nc1C`, `COC(=O)c1cn(Cc2c(C)cc(C)cc2C)nn1` is lower in “hERG current change (%, negative = inhibition) at 1uM” value: 9.38% for the first, 8.06% for the second.

First: O=S(=O)(c1cc(Cl)ccc1Cl)N1CCC2(CC1)OCCO2
Second: CC1CC2(CCCC2)Nc2ccc(F)cc21.Cl (centres unmarked)
The “hERG current change (%, negative = inhibition) at 1uM” value of the first is lower: 9.85% for the first, 16.7% for the second.

Compared with `Cc1onc(-c2c(F)cccc2Cl)c1C(=O)OCC(=O)NC1CC1`, `Cc1nc(C)c(C(=O)C2=C(O)C(=O)N(CCN3CCOCC3)C2c2ccco2)s1` (centres unmarked) is lower in “hERG current change (%, negative = inhibition) at 1uM” value: 11% for the first, 8.87% for the second.

Going from `Cc1noc(C)c1CN1C(=O)NC2(CCCCCCC2)C1=O` to `Cc1nc2nc(SCC(=O)N3CCOCC3)nn2c(C)c1Cc1ccccc1`, the “hERG current change (%, negative = inhibition) at 1uM” value rises from 6.38% to 6.96%.

Going from `O=C(CN1CCOCC1)N/N=C/c1ccc(-c2ccc(Br)cc2)o1` to `COC(=O)CC1COc2ccccc2N1C(=O)c1ccc(C(C)(C)C)cc1` (centres unmarked), the “hERG current change (%, negative = inhibition) at 1uM” value rises from -13.2% to 3.35%.

`CCCN1CCC(NC(=O)C2CCCCC2C(=O)O)CC1` (centres unmarked) and `CCc1nc(SCC(=O)NNC(=O)C(C)C)c2ccccc2n1` are the same in “hERG current change (%, negative = inhibition) at 1uM” value: 13.7% for the first, 13.7% for the second.

Compared with `NS(=O)(=O)c1ccc(CNC(=O)NC2(c3ccccc3)CC2)cc1`, `Cc1cccc(/C=C/C(=O)c2ccc([N+](=O)[O-])o2)c1` is lower in “hERG current change (%, negative = inhibition) at 1uM” value: 10.7% for the first, 8.53% for the second.

Going from `CCN(CC)P(=O)(c1ccccc1)c1c(C)nc2ccccn12` (centres unmarked) to `CCOc1ccccc1-n1c(O)c(C=Nc2c(C)n(C)n(-c3ccccc3)c2=O)c(=O)[nH]c1=O`, the “hERG current change (%, negative = inhibition) at 1uM” value falls from 9.7% to 8.47%.

First: Cc1ccc(N/C(N)=N/c2nc(C(F)(F)F)cc(C(F)(F)F)n2)cc1
Second: CSc1nnc(NC(=O)c2ccc(S(=O)(=O)N(C)C)cc2)s1
The “hERG current change (%, negative = inhibition) at 1uM” value of the first is lower: 9.94% for the first, 14.6% for the second.

First: O=C1CCC([N+](=O)[O-])C(c2ccccc2Br)N1 (centres unmarked)
Second: CCCCn1c(N)c(N(CC(C)C)C(=O)CCCc2cccs2)c(=O)[nH]c1=O
The “hERG current change (%, negative = inhibition) at 1uM” value of the first is higher: 19.7% for the first, 1.71% for the second.
